# From PubChem BioAssay AID1345083 (National Center for Advancing Translational Sciences (NCATS), 2018)
# About 6,200 (6.6%) of roughly 94,000 compounds were called active. The inconclusive results got no clear call from the source; some entries with a clear call stand among them for comparison. Calls come from the whole dose curve; as a rule, active = well fitted inhibition curve with a large enough effect; inconclusive = small, poorly fitted or top-dose-only effect; inactive = flat fitted curve, though single readings scatter. Potencies of inconclusive entries are doubtful fits and often do not repeat.
# Experiment: Cytotoxic Profiling in HEK 293 Cell Line of Diverse Libraries Using Quantitative High-Throughput Screening; note: nearly all actives have a fitted effect of over 60% in size
# Settings: HEK 293 viability, ATP luminescence (CellTiter-Glo), 48-72 h; activity change, negative = cytotoxicity: at 115 µM (top of the series) unless noted; series mostly up to 115 µM
# How it was run: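 Viability of HEK 293 cells, plated at 250 cells/well, was judged by cellular ATP after compound treatment for 48 or 72 hr. Luminescence was imaged 10 min after CellTiter-Glo addition at room temperature.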
# % is set by controls: 0 for no effect and ±100 for the full control effect; potency is the fitted concentration of half-maximal effect; tags give direction and shape of the fitted curve.
SMILES,"activity change, negative = cytotoxicity",Potency,outcome
Cc1nc([C@@H]2CN(C3CCN(CCc4ccccc4)CC3)C[C@H]2C(N)=O)n[nH]1,inactive: 0.954%,–,–
O=C1CC2(CCN([S+](=O)([O-])c3cccc(C(F)(F)F)c3)CC2)Oc2ccccc2N1c1ccccc1,–,"inconclusive: 31.6 µM [inhibitor, full curve, poor fit]",–
OCC1(Cc2ccccc2C(F)(F)F)CCNCC1,–,"inconclusive: 100 µM [inhibitor, single point]",–
Cc1ccccc1-c1ncc(CN2CCN(c3ccncc3C)CC2)cn1,–,"inconclusive: 39.8 µM [inhibitor, full curve, poor fit]",–
CC(C)N1C(=O)CO[C@H]2CCN(Cc3ccccc3Cl)CC[C@@H]21,–,"inconclusive: 56.2 µM [inhibitor, partial curve, poor fit]",–
COc1cc(=O)n2c(c1C(=O)Nc1cccc(F)c1)CCCC2,inactive: 4.7%,–,–
O=C1N(c2ccccc2)C[C@H]2CN(C3CCOCC3)CCN12,–,–,inactive [at 172 µM]
CNC(=O)c1nc2cccnc2n(C2CC2)c1=O,inactive: -1.09% [at 172 µM],–,–
CCCc1ccc(S(=O)(=O)N2C[C@@H]3C(=O)N(C(CC)c4cccs4)C(=O)[C@@H]3C2)cc1 (stereo not given in full),–,"inconclusive: 44.7 µM [inhibitor, partial curve, poor fit]",–
Cc1nn(-c2ccc(C(F)(F)F)cc2)c(C)c1[C@@H]1C=C[C@@H](NC(=O)C2CCCCC2)C1,–,"inconclusive: 50.1 µM [inhibitor, full curve]",–
Cc1ccc(NC(=O)N2c3ccccc3CC2c2nc(C3CC3)no2)c(C)c1 (stereo not given),–,"inconclusive: 89.1 µM [inhibitor, single point]",–
CN(CCOc1cccc(Cl)c1)C(=O)c1cccc(CCC(C)(C)O)c1,–,"inconclusive: 39.8 µM [inhibitor, partial curve, poor fit]",–
Cc1cccc(OCCc2noc(C3CCCCN3C(=O)c3ccc(C)nc3)n2)c1 (stereo not given),–,"inconclusive: 56.2 µM [inhibitor, partial curve, poor fit]",–
C[C@@]12CO[C@H](c3ccccc3)C[C@@H]1C[C@H](N1CCN(Cc3ccnc4ccccc34)CC1)C2,–,"inconclusive: 35.5 µM [inhibitor, partial curve, poor fit]",–
COc1ccc(OC)c2nc(-c3cccc(Cl)c3)c(CN3CCC(O)CC3)cc12,–,"inconclusive: 79.4 µM [inhibitor, partial curve, poor fit]",–
O=Cc1ccccc1-c1cccc(Cl)c1,–,"inconclusive: 89.1 µM [inhibitor, partial curve, poor fit]",–
COCc1nc2nc(-c3ccccc3)c(-c3ccnc(OC)c3)cc2n1C,–,"inconclusive: 79.4 µM [inhibitor, partial curve, poor fit]",–
CN(CCc1ccccc1)CC[C@@H]1CC[C@H](O)[C@@H](C(=O)NC2CCCCC2)O1,inactive: -36.6% [at 172 µM],–,–
O=C1COCC2(CN1Cc1ccccc1)CN(c1cccnc1)C2,inactive: -28.9% [at 172 µM],–,–
Cc1nn(-c2ccc(C(C)(C)C)cc2)c(C)c1[C@@H]1C=C[C@@H](NC(=O)CCCC(=O)O)C1,inactive: -23.5% [at 172 µM],–,–

SMILES,"activity change, negative = cytotoxicity",Potency,outcome
C=CCOc1cccc(-c2nc(C(=O)N(C)Cc3ccccc3)cs2)c1,–,"inconclusive: 50.1 µM [inhibitor, partial curve, poor fit]",–
c1ccc(-c2noc(Nc3ccc4c(c3)OCCO4)n2)cc1,–,active: 39.8 µM,–
O=C(NCCc1ccc(Cl)cc1)C1CCCN(c2nc3ncccc3o2)C1 (stereo not given),–,"inconclusive: 50.1 µM [inhibitor, partial curve, poor fit]",–
COc1ccc(OCC(O)CN2CCC(=O)N(CC3CC3)Cc3cc(F)ccc32)cc1 (stereo not given),–,"inconclusive: 44.7 µM [inhibitor, partial curve]",–
COc1cccc(N2C(=O)N[C@@H]3CCN(C(=O)c4cccs4)[C@@H]3C2=O)c1,inactive: -1.21% [at 172 µM],–,–
O=C(Nc1ccc2c(c1)OCCO2)N1CCCC(Cc2noc(-c3ccncc3)n2)C1 (stereo not given),–,"inconclusive: 8.91 µM [inhibitor, full curve, poor fit]",–
COc1ccc(-c2nc(CC3CCN(C(=O)c4cc(C)n(C)n4)C3)no2)cc1 (stereo not given),–,"inconclusive: 50.1 µM [inhibitor, partial curve, poor fit]",–
COc1ccc(OC)c(CN2CCC3(CC2)Nc2ccccc2NC3=O)c1,–,"inconclusive: 63.1 µM [inhibitor, partial curve, poor fit]",–
O=C(c1ccccc1Cl)N1CCC(C(=O)N2CCCC2c2nc3ccncc3[nH]2)CC1 (stereo not given),inactive: 0.135%,–,–
O=C(NCCc1ccccc1F)C1CCCN(c2ccnc3ccnn23)C1 (stereo not given),–,"inconclusive: 44.7 µM [inhibitor, partial curve, poor fit]",–
COc1ccccc1N1CCCc2ncc(C(=O)NCCc3ccccc3)cc21,–,"inconclusive: 126 µM [inhibitor, single point]",–
O=C(C1CCN(Cc2ccccc2-c2cccnc2)CC1)N1CCCCC1,–,"inconclusive: 39.8 µM [inhibitor, partial curve, poor fit]",–
CN1CC(=O)N(c2ccccc2)Cc2c(NCCCc3ccccc3)ncnc21,–,"inconclusive: 56.2 µM [inhibitor, partial curve, poor fit]",–
O=C(O)c1cccc2c1CCN2S(=O)(=O)c1ccccc1F,inactive: -33.4%,–,–
COc1ccc(C(=O)N2CCC(n3cc(-c4nc(C5CC5)no4)nn3)C2)cc1 (stereo not given),–,"inconclusive: 44.7 µM [inhibitor, partial curve, poor fit]",–
CCn1cc(-c2ccc(F)cc2)cc1C(=O)N1CCCCCC1,–,"inconclusive: 50.1 µM [inhibitor, partial curve, poor fit]",–
O=C1NC2(CCN(C(=O)c3ccccn3)C2)Oc2ccccc21 (stereo not given),inactive: -8.41% [at 172 µM],–,–
Cc1noc(-c2cccc(OC3CN(C(=O)NCc4ccc(F)cc4)C3)c2)n1,–,"inconclusive: 28.2 µM [inhibitor, full curve]",–
COc1ccc(-c2cc(N3CCN(C(=O)c4ccccc4Br)CC3)n[nH]2)cc1,–,"inconclusive: 50.1 µM [inhibitor, partial curve, poor fit]",–
CCc1[nH]ncc1C(=O)N[C@H]1CC[C@H](Nc2nccc(-c3ccccn3)n2)C1,–,"inconclusive: 50.1 µM [inhibitor, partial curve, poor fit]",–
